Here are results for 45 compounds from PMC4336329 (PLoS ONE, 2015).

SMILES strings stand for the structures. The campaign covered roughly 310,000 compounds. About 2,200 (0.71%) showed an effect of 50% or more. The effect is printed as a negative number. The list shows a part of the results.

In the experiment the target is human ether-à-go-go-related gene (hERG) potassium channel (human, UniProt Q12809). As to the kind of experiment: primary screen, population patch clamp on CHO cells stably expressing hERG.
Chain of human ether-à-go-go-related gene (hERG) potassium channel (Q12809 whole entry, looked up): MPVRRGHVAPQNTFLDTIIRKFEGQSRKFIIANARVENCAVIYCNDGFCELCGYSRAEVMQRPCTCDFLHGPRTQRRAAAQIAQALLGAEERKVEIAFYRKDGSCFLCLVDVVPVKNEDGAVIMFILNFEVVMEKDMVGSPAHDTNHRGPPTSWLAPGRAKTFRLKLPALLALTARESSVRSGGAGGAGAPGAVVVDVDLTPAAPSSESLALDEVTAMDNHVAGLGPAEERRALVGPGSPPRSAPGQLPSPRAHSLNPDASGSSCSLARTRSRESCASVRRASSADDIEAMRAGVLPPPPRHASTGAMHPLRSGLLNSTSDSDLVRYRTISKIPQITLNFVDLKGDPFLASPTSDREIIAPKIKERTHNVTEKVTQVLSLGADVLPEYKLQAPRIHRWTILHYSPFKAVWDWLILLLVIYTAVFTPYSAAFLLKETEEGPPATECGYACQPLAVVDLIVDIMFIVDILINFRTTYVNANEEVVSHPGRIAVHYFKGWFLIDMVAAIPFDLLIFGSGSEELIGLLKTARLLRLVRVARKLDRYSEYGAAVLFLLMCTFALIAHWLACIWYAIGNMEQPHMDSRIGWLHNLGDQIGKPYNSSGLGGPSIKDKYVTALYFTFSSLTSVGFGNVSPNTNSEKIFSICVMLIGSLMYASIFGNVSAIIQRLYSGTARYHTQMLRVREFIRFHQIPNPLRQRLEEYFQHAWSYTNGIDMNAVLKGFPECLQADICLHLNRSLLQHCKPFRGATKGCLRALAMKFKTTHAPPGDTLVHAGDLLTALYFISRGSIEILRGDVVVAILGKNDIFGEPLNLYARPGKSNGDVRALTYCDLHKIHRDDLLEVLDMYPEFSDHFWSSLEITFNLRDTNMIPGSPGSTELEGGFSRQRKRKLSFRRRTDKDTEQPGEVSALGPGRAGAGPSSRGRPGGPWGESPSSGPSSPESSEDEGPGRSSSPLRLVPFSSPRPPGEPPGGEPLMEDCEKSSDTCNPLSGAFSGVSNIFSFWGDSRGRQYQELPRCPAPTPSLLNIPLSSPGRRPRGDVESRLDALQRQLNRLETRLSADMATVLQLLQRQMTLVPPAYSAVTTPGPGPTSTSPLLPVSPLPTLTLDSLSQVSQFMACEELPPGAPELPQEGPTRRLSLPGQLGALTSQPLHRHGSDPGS
For `C/C(=N\NC(=O)C1CC1)c1ccc(C)c(C)c1`, the “hERG current change (%, negative = inhibition) at 1uM” value was found to be 18.1%.
For `Cc1ccc(-n2c(-c3cnccn3)n[nH]c2=S)cc1` the value was 10.1%; for `CN(CCc1ccccn1)C(=O)c1ccc(OC2CCN(CCc3ccccc3)CC2)cc1`, -5.56%; for `O=C1CC(c2ccco2)CC(O)=C1C=NCCN1CCN(C(=O)Nc2ccc(Cl)cc2)CC1` (stereo not drawn), -16.1%.
For `CC(c1ccc(F)cc1)n1cc(S(=O)(=O)N2CCCC2)ccc1=O` (stereo not drawn) the value was -3.16%; for `COc1ccc(/C=C/C(=O)Nc2cc(S(=O)(=O)N3CCCCC3)ccc2N2CCCCC2)cc1OC`, 1.94%; for `C=CCc1c(C)nc(SCCC)[nH]c1=O`, 8.56%.
With `O=C(OCc1nnc(-c2ccc([N+](=O)[O-])cc2)o1)C1CCN(C(=O)c2ccc(F)cc2)CC1` the figure was -71.4%; with `O=P(OC1CCCCC1)(OC1CCCCC1)C(O)c1ccccc1` (stereo not drawn), 1.82%; with `COCCCN(CC(=O)O)S(=O)(=O)c1cccc(Cl)c1`, 5.55%.
On to `COCCn1c(Cc2ccccc2)nnc1SCC(=O)NC1CCCCC1`, for which the “hERG current change (%, negative = inhibition) at 1uM” value turned out to be 15.2%.
As to `COc1cc(CC(NC(C)=O)C(=O)NC2CCN(C(=O)C3CC3)CC2)cc(OC)c1` (stereo not drawn), the “hERG current change (%, negative = inhibition) at 1uM” value came out at 10.5%.
With `COc1ccc(-c2oc3cc(OC)c(O)c(OC)c3c(=O)c2OC)cc1O` the figure was 9.27%.
`OC1CCC(Nc2ncnc3sccc23)CC1` (stereo not drawn): the “hERG current change (%, negative = inhibition) at 1uM” value stood at 15.2%.
For `COc1ccc(N2C(=O)CC(SCC(=O)O)C2=O)cc1` (stereo not drawn) the value was 4.69%; for `C1CCc2nc3c(nc2C1)CCCC3`, -4.29%.
In the case of `COc1ccc(C2CC(=O)c3c(O)cc(O)cc3O2)c(CC=C(C)C)c1OC` (stereo not drawn), the “hERG current change (%, negative = inhibition) at 1uM” value stood at 13.1%.
For `Cc1ccc(NC(=O)c2cnn(-c3ccccc3)c2C)cc1C`, the “hERG current change (%, negative = inhibition) at 1uM” value was 6.32%.
With `Cc1ccc2nc(-c3ccc(O)cc3)c(Nc3ccc4c(c3)OCCO4)n2c1` the figure was 2.05%.
In the case of `CCCc1nnc(NC(=O)CNc2ccc(F)cc2)s1`, the “hERG current change (%, negative = inhibition) at 1uM” value is 1.24%.
For `O=S(=O)(c1ccc(Cl)cc1)n1c(Cc2ccccc2)nc2ccccc21` the value was 9.19%.
With `CC(Oc1ccc(Cl)cc1Cl)C(=O)Nc1ccc2oc(-c3ccncc3)nc2c1` (stereo not drawn) the figure was 9.73%; with `Cc1cc(Cl)c(S(=O)(=O)N2CCCCCC2)cc1OCC(=O)NC1CCCCC1`, 13.8%; with `CN(Cc1cccnc1)Cc1c(C(=O)N2CCc3ccccc3C2)nc2ccc(Cl)cn12`, 11.7%.
With `CC(=O)Nc1ccc(NC(=O)CCSCCc2ccccn2)cc1` the figure was 19.7%; with `O=C(COC(=O)CNC(=O)c1ccccc1Cl)Nc1cc(C(F)(F)F)ccc1Cl`, 16.2%; with `CC(C)CN(C(=O)C(C)N1C(=O)c2ccccc2C1=O)c1c(N)n(Cc2ccccc2)c(=O)[nH]c1=O` (stereo not drawn), 5.47%.
Regarding `CC(=O)Nc1ccc(C(=O)N/C(=C\c2ccccc2)C(=O)Nc2cccc(C(=O)O)c2)cc1`, the “hERG current change (%, negative = inhibition) at 1uM” value was 8.6%.
For `CCCN(CC(=O)Nc1ccc(F)c(F)c1F)C(=O)c1ccc2c(=O)n3c(nc2c1)CCC3` the value was 11.7%; for `COc1cc(OC)c(C(=O)Nc2ccc(S(=O)(=O)N3CCCCC3)cc2)cc1OC`, 16.6%.
`Cc1cc(Nc2ccccc2Br)n2nc(C)nc2n1`: the “hERG current change (%, negative = inhibition) at 1uM” value is 11.2%.
As to `COc1ccc(N2CCN(C(=S)Nc3cccc(OC)c3)CC2)cc1`, the “hERG current change (%, negative = inhibition) at 1uM” value is -0.255%.
For `CCc1ccc(N2C(=O)c3sc4nnc(C)c(=O)n4c3C2=O)cc1` the value was -12%; for `Cc1cccc(CC2S/C(=N/N=C/c3ccco3)N(c3ccccc3)C2=O)c1` (stereo not drawn), -1.42%; for `CC(C)OP(=O)(CCP(=O)(OC(C)C)OC(C)C)OC(C)C`, 13.4%.
For `O=C(Nc1nc2ccc(S(=O)(=O)N3CCCC3)cc2s1)C1CCCCC1` the value was 18.8%; for `Cc1c(Cl)cccc1NC(=S)/C(=C(\[O-])c1ccc(Cl)s1)[n+]1ccccc1`, 12.8%; for `CC(O)CNCCOc1cccc(Oc2ccccc2)c1.O=C(O)C(=O)O` (stereo not drawn), -0.98%.
`CN1/C(=N\O)c2cccc3cccc1c23`: the “hERG current change (%, negative = inhibition) at 1uM” value amounted to 9.88%.
For `CCOC(=O)c1cc(-c2ccccc2)sc1NC(=O)CN1C(=O)NC(CC)(c2ccccc2)C1=O` (stereo not drawn) the value was 0.988%; for `CCc1ccc(NC(=O)CN(C)S(=O)(=O)c2ccc3[nH]c(=O)oc3c2)cc1`, 5.73%; for `CCCCCC(O)(c1ccc(OC)cc1)C(CN1CCOCC1)c1ccccc1.Cl` (stereo not drawn), 11.7%.
For the compound `Cc1cc(Oc2ccccc2)nc(-c2ccccc2)n1`, the “hERG current change (%, negative = inhibition) at 1uM” value was 3.61%.
With `Cc1[nH]ccc(=O)c1OC1OC(CO)C(O)C(O)C1O` (stereo not drawn) the figure was 13.7%.
`CCN(CC(=O)Nc1c(F)cccc1F)C(=O)CNC(=O)COc1ccccc1`: the “hERG current change (%, negative = inhibition) at 1uM” value turned out to be 10.9%.
